The source of these data is article PMC12136788.

The list shows a part of the results.

Sequences and labels used below:
T1: UNK ZnF1-3 (human, UniProt Q9C0B0 31-174)
T1 sequence: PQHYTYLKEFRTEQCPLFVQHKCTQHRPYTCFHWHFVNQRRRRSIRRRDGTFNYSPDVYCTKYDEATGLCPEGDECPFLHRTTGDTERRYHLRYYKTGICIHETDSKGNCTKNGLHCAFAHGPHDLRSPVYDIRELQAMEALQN

B1: chrX:50293416:50293417:+_ENSMUSG00000025626_ENSMUST00000078944|mus_hu|motif|central (ssRNA)
RNA: GGGAGUUCUACAGUCCGACGAUCUUUCUUUUUACUUUUAGGUGAUGAGGGCUCCAGUUCAUGUUCAUUAAAACUUUCUUCGGAAUCAGCUUCGGAGUUAUGUGCAGUUUUCUUGUGUUUUCGGCAAUAGACCAUGUAAAUUCCCAACAGAGGAUUGAGCAUCA
B2: chr10:33214929:33214930:-_ENSG00000150093_ENST00000302278|hu_hu|hu_hu_hu_mus_True|38_88 (ssRNA)
RNA: GGGAGUUCUACAGUCCGACGAUCAACAAGUUCAUUGAAAAACUCUCCUUUAUUAGUAAGACUAAGCACAUUUUUGUAGCUAAAUGGGCUGGUGCAGUUCUGUUCACUUGUACAAGGAUUUCUUAGCUUUGCUGGGGUUGUGCUCAACAGAGGAUUGAGCAUCA
B3: chr5:128448638:128448639:+_ENSG00000066583_ENST00000173527|hu_mus|hu_hu_hu_mus_False|8_28 (ssRNA)
RNA: GGGAGUUCUACAGUCCGACGAUCGGCACUCGCCUUAAUUAGGUUCUGAAUUUCCUUGAACUUCGGGUGGUCUUUGUCAGCCACCAGCUGUAGGAGGACAGCCUCACUCGUGGUCACGAUGAUCCCAGUUCGAGCGAGACGCUCCAACAGAGGAUUGAGCAUCA
B4: chr17:46962767:46962768:-_ENSMUSG00000036568_ENSMUST00000040624|mus_hu|FALSE|FALSE (ssRNA)
RNA: GGGAGUUCUACAGUCCGACGAUCAACAGGCACAUGCGUCACCCCUAUAGGCUGCAGCGUCUGACCUGAGUAAUUAGAAACAUUAGAAGCCUGAGUAAAGGAUGCUGAUGAAGAAGGAUGAAGCUGAGCUUGUGCAAACUGUUGCAACAGAGGAUUGAGCAUCA
B5: chr8:104447970:104447971:+_ENSG00000164934_ENST00000297579|hu_hu|hu_hu_hu_mus_False|1_88 (ssRNA)
RNA: GGGAGUUCUACAGUCCGACGAUCAUACACUUCCCUGCUUCGGCUCUUGUCUACAGGAAAGAUUCUAAUAGACUUAUCAAAGCUGGCAGACACAAAUUCCUUCCCAGUGGGAGAGUAGUCCACAUCAAGUACUGCAGAUACAUGCAACAGAGGAUUGAGCAUCA
B6: chr5:21408736:21408737:-_ENSMUSG00000042453_ENSMUST00000161356|mus_hu|FALSE|FALSE (ssRNA)
RNA: GGGAGUUCUACAGUCCGACGAUCGUUGACAGAGUUGUAGAUGGUGGCUUCAUGGAACUGGAAAGGGGAGCAGCCAAUGCUGUUAGAAGAGGAAGGAAGGCACUGGGUCUGUACGAGCUGCCAGGAAUCCGAUCUUGCAUCCUUCAACAGAGGAUUGAGCAUCA

In this experiment the target is T1, UNK ZnF1-3. The experiment can be described thus: nsRBNS (natural sequence RNA bind-n-seq); RBNS binding buffer (assumed for nsRBNS): 25 mM Tris pH 7.5, 150 mM KCl, 3 mM MgCl2, 0.01% Triton X-100, 500 ug/ml BSA, 20 U/ml SUPERase-In, 4 C; UNK is unkempt and MSI1 is Musashi-1; names of the RNAs are library labels; protein concentration not given here; high values mean tight binding.
Consider B1, for which the binding signal stood at 0.681 enrichment R.
In turn, B2 gave a binding signal of 0.668 enrichment R.
The molecule B3 had a binding signal of 0.657 enrichment R.
In the case of B4, the binding signal was determined as 1.51 enrichment R.
Turning to B5, the binding signal worked out at 0.853 enrichment R.
B6 showed a binding signal of 1.58 enrichment R.
